Earlier results as cited in PMC8775252, “Characterization of Alternaria porri causing onion purple blotch and its antifungal compound magnolol identified from Caryodaphnopsis baviensis” (PLoS ONE, 2022).

Conditions: cited from earlier work

C=CCc1ccc(O)c(-c2cc(CC=C)ccc2O)c1 [magnolol, 5,5’-di-2-propenyl-1,1’-biphenyl-2,2’-diol]
mutagenic and genotoxic studies: does not give rise to any concerns for human health
